# Results from PubChem BioAssay AID488969 (Vanderbilt High Throughput Screening Facility, 2010).
# Over roughly 110,000 compounds, “z-score” has its median near -0.1; the highest 2% begin near 2. The list shows a part of the results.
# Target: Metabotropic glutamate receptor 8 (Rattus norvegicus) (UniProt P70579)
# Assay: mGluR8 Gi/Go-coupled signaling modulation – cell-based, rat, thallium flux, HTS, primary screen (AID 488969)
# Conditions: HEK293 rat mGluR8, GIRK (G protein-gated inwardly rectifying potassium channel) thallium flux, FluoZin2; at 10 µM; stronger effect = higher value; submaximal glutamate (EC20) added with thallium
# Sequence of UniProt P70579 (P70579 whole entry, looked up): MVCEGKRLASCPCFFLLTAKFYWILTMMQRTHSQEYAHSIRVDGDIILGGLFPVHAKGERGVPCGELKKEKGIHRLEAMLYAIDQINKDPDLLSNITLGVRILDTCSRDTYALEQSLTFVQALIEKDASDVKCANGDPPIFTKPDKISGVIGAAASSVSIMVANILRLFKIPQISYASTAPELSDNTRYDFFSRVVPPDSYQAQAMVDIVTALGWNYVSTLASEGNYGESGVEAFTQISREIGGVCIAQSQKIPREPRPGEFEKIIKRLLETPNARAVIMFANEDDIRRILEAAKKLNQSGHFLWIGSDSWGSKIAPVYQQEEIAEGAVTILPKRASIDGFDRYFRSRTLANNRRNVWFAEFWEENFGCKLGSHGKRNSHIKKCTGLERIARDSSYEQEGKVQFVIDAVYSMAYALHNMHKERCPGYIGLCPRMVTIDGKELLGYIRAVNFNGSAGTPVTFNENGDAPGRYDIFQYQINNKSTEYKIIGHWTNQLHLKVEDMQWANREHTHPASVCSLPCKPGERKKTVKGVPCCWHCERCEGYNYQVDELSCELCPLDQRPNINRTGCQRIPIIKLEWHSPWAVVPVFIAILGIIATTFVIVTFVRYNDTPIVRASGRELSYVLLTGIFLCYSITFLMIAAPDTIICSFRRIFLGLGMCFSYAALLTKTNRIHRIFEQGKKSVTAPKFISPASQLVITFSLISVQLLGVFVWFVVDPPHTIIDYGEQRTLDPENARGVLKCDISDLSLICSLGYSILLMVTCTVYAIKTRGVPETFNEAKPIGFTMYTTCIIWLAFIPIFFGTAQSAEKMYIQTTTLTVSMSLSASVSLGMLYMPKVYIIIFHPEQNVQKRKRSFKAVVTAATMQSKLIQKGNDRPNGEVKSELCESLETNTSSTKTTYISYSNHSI
row,SMILES,z-score
1,O=c1[nH]c(-c2cccs2)nc2ccccc12,0.785
2,CN(CCCNC(=O)CN1C(=O)CC(C)(C)S(=O)(=O)c2ccccc21)C1CCCCC1,0.909
3,O=C(c1nc2ccccc2s1)N1CCN(c2ccccn2)CC1,-0.688
4,O=C(CC1(O)C(=O)N(Cc2ccccc2)c2ccccc21)c1ccc2c(c1)OCO2 (centres undefined),-0.631
5,Cc1nc2ccccc2c(=O)n1/N=C/c1c(O)ccc2oc3c(c12)CCCC3,-0.0316
6,COc1cccc(NC(=O)CCN2CCN(c3ccccc3F)CC2)c1,-0.497
7,Cc1nc(-c2ccccn2)sc1C(=O)Nc1ccc(F)cc1F,0.00231
8,Cc1cccc(N2CCN(Cc3c(C)n(C)n(-c4ccccc4)c3=O)CC2)c1C,-0.00194
9,CCC(=O)N(Cc1ccco1)c1nc(-c2ccc(OC)cc2)cs1,1.16
10,COCCN1C(=O)C(=O)/C(=C(/O)c2ccc(OC(C)C)cc2)C1c1cccnc1 (centres undefined),0.0366
11,O=C(NCc1ccco1)c1ccc2c(c1)N(Cc1ccccc1)C(=O)CS2,-1.3
12,CC(=C1C2C=CC1C1C(=O)NC(=O)C21)c1ccccc1 (centres undefined),0.0886
13,Cc1ccc(N/N=C/c2ccc(N3CCOCC3)cc2)cc1C,-0.121
14,COc1cc(S(=O)(=O)n2ccc(C)n2)c(OC)cc1Cl,-0.287
15,O=C(C1CCCCN1S(=O)(=O)c1ccccc1)N1CCN(Cc2ccccc2)CC1 (centres undefined),0.131
16,Cc1ccc2cccc(S(=O)(=O)n3nc(C)cc3C)c2n1,-0.0908
17,Cc1cc(C(F)(F)F)n2nc(-c3sccc3-n3cccc3)cc2n1,-0.0777
18,COc1cc2c(cc1OC)-c1cc(NC3CCCC3)nc(=O)n1CC2,-0.576
19,O=C(Nc1ccccc1N1CCOCC1)C1Cc2ccccc2CN1C(=O)c1ccco1 (centres undefined),0.439
20,Cc1ccc(Nc2cc(C)nc3c(C)ccc([N+](=O)[O-])c23)cc1,-0.0986
21,CCOC(=O)c1cn(CC)c2ccc(S(=O)(=O)N3CC(C)CC(C)C3)cc2c1=O (centres undefined),-0.315
22,CCOC(=O)Cn1nnnc1C(CC)N(Cc1cc2ccc(C)cc2[nH]c1=O)C1CCCC1 (centres undefined),-1.12
23,O=C(CCc1ccccc1)N/N=C/c1cc(Br)ccc1O,0.124
24,Cc1cc(Br)ccc1NC(=O)C1CCCO1 (centres undefined),-0.602
25,CN(CCc1ccccn1)S(=O)(=O)c1ccccc1F,0.185
26,CCOC(=O)N1CCC(c2nc(C)sc2C(=O)O)CC1,-0.00744
27,Cc1ccc(-c2nnc(SCC(=O)NC(=O)Nc3ccc(C)cc3C)n2N)cc1,-0.349

row,SMILES,z-score
1,Cc1cnn(C(=S)NCc2ccc(Cl)cc2)c1,0.235
2,O=S(=O)(Cc1nc2ccccc2s1)c1ccccc1,0.0223
3,CC(CNC(=O)C(=O)NC(C)CCc1ccccc1)Cc1ccccc1 (centres undefined),-0.494
4,Cc1onc(-c2c(F)cccc2Cl)c1C(=O)Nc1ccc(S(=O)(=O)Nc2ncccn2)cc1,0.0721
5,C(#Cc1ccccc1)CN1CCN(c2ccccn2)CC1,0.755
6,Cc1nc(-c2ccccn2)sc1C(=O)Nc1ccc(Cl)c(Cl)c1,-0.00279
7,COc1cc(C(=O)NNC2=NC(C)(C)Cc3cc(C)c(C)cc32)cc(OC)c1OC,-0.205
8,CC(C(=O)NCC1(c2ccccc2)CCCC1)N1CCCC1 (centres undefined),0.127
9,CCOC(=O)C1=C(C)Nc2nc(SCC(=O)OC)nn2C1c1cc(F)cc(F)c1 (centres undefined),-0.384
10,CCCn1c(Sc2nc3c(c(=O)[nH]c(=O)n3C)n2CCC)nc2c1c(=O)[nH]c(=O)n2C,-0.671
11,CCOC(=O)c1c(C)n(C)c2ccc(OC(=O)c3ccc(N4C(=O)CCC4=O)cc3)cc12,0.145
12,COC(=O)C1=C(Nc2ccc(C)cc2)C=C(C)C(C(=O)OC)C1c1ccc(OC)cc1 (centres undefined),-0.0105
13,N#CC1=C(N)SC(C(=O)c2ccccc2)C1c1cccs1 (centres undefined),-0.43
14,C/C(=N\NC(=O)c1c(Br)c(C)nn1C)c1cccc(NC(=O)C2CCC2)c1,-1.59
15,N#Cc1ccc(-c2csc(NC(=O)/C=C/c3cccs3)n2)cc1,-0.212
16,Cc1ccc(C(=O)NC2(C(F)(F)F)N=C3SCCN3C2=O)cc1 (centres undefined),2.91
17,Cc1ccc2ccccc2[n+]1CCCS(=O)(=O)[O-],1.29
18,COc1ccc(NC(=S)N(CCCN2CCN(C)CC2)Cc2cccs2)cc1,0.221
19,C=C(C)CN=c1scc(C)n1/N=C/c1ccco1,-0.798
20,CC(=O)NC(CC(=O)Nc1cccc(S(=O)(=O)N2CCCCC2)c1)c1ccccc1 (centres undefined),0.132
21,CCN(CC)C(=O)c1sc(NC(=O)Cc2ccc(OC)cc2)c(C#N)c1C,-0.246
22,CC(=O)NCC(=O)N(C)C(C(=O)Nc1ccc(C(C)C)cc1)c1ccccc1 (centres undefined),0.272
23,NC(=O)CNC(=O)[C@@H]1CC2(CC(c3cccc([N+](=O)[O-])c3)=NO2)CN1C(=O)c1ccccc1 (some centres undefined),-0.201
24,CCCn1c(SCC(N)=O)nc2c(c1=O)C1(CCCC1)Cc1ccccc1-2,-0.333
25,O=C1C(=O)N(CNc2ccccn2)c2ccccc21,0.0523
26,CCn1cc(/C=N/NS(=O)(=O)c2ccc(C)cc2)c(C)n1,-0.045
27,CCN(CC)S(=O)(=O)c1ccc(NC2c3ccccc3C(=O)N2Cc2ccco2)cc1 (centres undefined),-1.18
